# In publication PMC4336329 (PLoS ONE, 2015):
# The campaign covered roughly 310,000 compounds. About 14,000 (4.5%) showed an effect of 50% or more. Effects have a minus sign here. Some of the results follow.
# Biological target: human ether-à-go-go-related gene (hERG) potassium channel (human, UniProt Q12809)
# Assay: primary screen, population patch clamp on CHO cells stably expressing hERG
# 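Note: peak tail current of the secondary pulse compared with the same well before compound.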
# Chain of human ether-à-go-go-related gene (hERG) potassium channel (Q12809 whole entry, looked up): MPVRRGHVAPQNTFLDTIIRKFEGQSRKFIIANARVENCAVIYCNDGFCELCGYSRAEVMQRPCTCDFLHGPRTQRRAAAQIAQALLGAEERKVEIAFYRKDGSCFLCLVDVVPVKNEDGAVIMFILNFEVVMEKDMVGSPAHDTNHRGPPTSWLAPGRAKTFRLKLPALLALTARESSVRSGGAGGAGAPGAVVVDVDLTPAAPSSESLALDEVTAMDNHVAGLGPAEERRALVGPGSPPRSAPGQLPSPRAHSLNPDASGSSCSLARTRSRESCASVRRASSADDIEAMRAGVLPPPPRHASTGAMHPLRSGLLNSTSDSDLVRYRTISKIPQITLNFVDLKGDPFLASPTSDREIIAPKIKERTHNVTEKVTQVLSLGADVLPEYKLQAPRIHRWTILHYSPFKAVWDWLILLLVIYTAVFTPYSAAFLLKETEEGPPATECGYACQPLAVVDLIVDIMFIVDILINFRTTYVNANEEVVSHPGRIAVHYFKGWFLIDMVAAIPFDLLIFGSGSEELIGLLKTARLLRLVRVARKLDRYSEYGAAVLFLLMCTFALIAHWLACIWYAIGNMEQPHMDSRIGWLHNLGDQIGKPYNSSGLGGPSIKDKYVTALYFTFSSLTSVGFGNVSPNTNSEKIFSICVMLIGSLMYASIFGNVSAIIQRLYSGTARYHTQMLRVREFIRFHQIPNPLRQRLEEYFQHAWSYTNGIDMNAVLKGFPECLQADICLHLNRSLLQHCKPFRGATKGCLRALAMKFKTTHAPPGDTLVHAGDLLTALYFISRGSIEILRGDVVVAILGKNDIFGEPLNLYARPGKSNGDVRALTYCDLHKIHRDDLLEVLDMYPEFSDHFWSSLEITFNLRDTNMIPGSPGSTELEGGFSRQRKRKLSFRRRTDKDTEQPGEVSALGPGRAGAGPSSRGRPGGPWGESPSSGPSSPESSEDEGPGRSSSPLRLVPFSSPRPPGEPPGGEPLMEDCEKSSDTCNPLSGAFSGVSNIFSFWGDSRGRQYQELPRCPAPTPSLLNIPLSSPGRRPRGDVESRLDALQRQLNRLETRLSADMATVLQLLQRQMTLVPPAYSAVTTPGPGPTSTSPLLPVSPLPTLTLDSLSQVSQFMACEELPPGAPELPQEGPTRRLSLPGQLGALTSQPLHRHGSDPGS
row,Structure (SMILES),"hERG current change (%, negative = inhibition) at 10uM [%]"
1,CCS(=O)(=O)c1nc(S(=O)(=O)c2ccc(Cl)cc2)c(NCCN2CCOCC2)s1,-0.472
2,CC(C)CNC(=O)CN(C1CCCCC1)S(=O)(=O)c1ccccc1,0.637
3,O=C(CSc1n[nH]c(-c2cccnc2)n1)Nc1ccnc2ccccc12,5.38
4,C[C@H]1C(=O)O[C@@H]2CCN3CC=C(COC(=O)[C@](C)(O)[C@]1(C)O)[C@H]23,-7
5,O=C(COc1cccc(OC(F)F)c1)Nc1ccc(SC(F)F)cc1,-29.4
6,COc1ccc(-c2csc(N3C(=O)C4C5c6ccccc6C(c6ccccc65)[C@@H]4C3=O)n2)cc1 (some centres unmarked),19.4
7,Cc1ccc(OCCCC(=O)Nc2nnc(C3CCCO3)s2)c(C)c1 (centres unmarked),20.6
8,Cc1ccc(-c2nc3ccccc3c(C(=O)NCc3cccs3)c2C)cc1,-5.33
9,OC(c1cc(-c2ccc(Cl)cc2)nc2ccccc12)C1CCCCN1 (centres unmarked),-52.6
10,Cc1cc(C)n2nc(SCc3cccc(F)c3)nc2n1,-3.78
11,COc1cc(C)nc(NC(=O)NC(=O)c2ccc(C(F)(F)F)cc2)n1,16
12,Cc1ncc(CO)c2c1OC(C)(C)OC2,13.6
13,O=C(O)/C=C/C(=O)Nc1ccc(Cl)cc1C(=O)c1ccccc1,-7.6
14,Clc1ccc(-c2nnc3c4ccccc4nc(N4CCOCC4)n23)cc1Cl,-64.7
15,CCN1CCN(C(=O)CCN2C(=O)c3ccccc3C2=O)CC1,-1.77
16,Cc1ccc2c(c1)N(CCC(=O)NC1CCCCC1)C(=O)CO2,25.3
17,Cc1nc(C)n(C(C)CNS(=O)(=O)c2ccc(C)c(C)c2)n1 (centres unmarked),17.5
18,Cc1cc(OCC(O)CN2C(C)CCCC2C)ccc1C(C)C (centres unmarked),-32.4
19,COc1ccc(NS(=O)(=O)c2ccc(-n3nnc4ccccc43)c([N+](=O)[O-])c2)cc1,-0.892
20,S=C(NCc1ccco1)NCC1CCCO1 (centres unmarked),5.04
21,CC(NS(=O)(=O)c1cccc(C(=O)NCc2ccncc2)c1)c1ccccc1 (centres unmarked),-5.36
22,COc1ccc(CNCCC2(C(C)C)CCOC(C)(C)C2)cc1 (centres unmarked),-11.4

row,Structure (SMILES),"hERG current change (%, negative = inhibition) at 10uM [%]"
1,CC1=NCCN1CCNC(=O)Nc1cc(C)cc(C)c1,15.6
2,CC1CCN(C2=NC(=O)/C(=C/c3ccccc3F)S2)CC1,-25.2
3,CCOC(=O)CC(NC(=O)c1ccco1)c1ccccc1Cl (centres unmarked),-4.55
4,Cc1ccsc1C(=O)NNC(=S)NCC(C)C,5.42
5,COc1cc2c(cc1OC)C(C)N(CC(=O)Nc1ccc(S(=O)(=O)N3CCCC3)cc1)CC2 (centres unmarked),-14.1
6,Cc1ncc(CO)c2c1Oc1nc(-c3ccccc3)nc(SCC(=O)N3CCOCC3)c1C2,9.56
7,Cc1ccc(C(=O)C(C)Oc2ccc3ccc(=O)oc3c2)cc1 (centres unmarked),-6.75
8,Cc1noc(C)c1C(=O)Nc1nc2ccc(F)cc2s1,-9
9,CCc1nnc(NC(=O)CSc2nnc(C)n2CC2CCCO2)s1 (centres unmarked),5.75
10,COCCNC(=O)CSc1nc2nn(-c3ccccc3)c(=O)c-2c2n1CCCCC2,23.2
11,COc1ccc(CNC(=O)[C@H](NC(=O)C2CCN(C(=O)[C@@H](N)CCSC)CC2)C(C)C)cc1,2.54
12,Cc1ccc([N+](=O)[O-])cc1N1C(=O)CS/C1=N\NC(=O)c1cccnc1,25.6
13,CCCCNC(=O)C1CC(=O)N(CCc2ccccc2)C1 (centres unmarked),13.1
14,CC(=O)C(C(c1ccccc1)c1c[nH]c2ccccc12)[N+](=O)[O-] (centres unmarked),12.7
15,O=C(c1ccc(-n2cncn2)c([N+](=O)[O-])c1)N1CCN(S(=O)(=O)c2ccc(F)c(F)c2)CC1,-72.7
16,CCOc1ccccc1N(CC(=O)N1CCC(C(N)=O)CC1)S(=O)(=O)c1ccc(SC)cc1,3.7
17,COc1ccc(N(CC(=O)NCCSC(C)(C)C)S(C)(=O)=O)c(OC)c1,5.64
18,COc1ccc(S(=O)(=O)n2oc(=O)cc2-c2ccccc2)cc1,-2.17
19,COc1cc(CNC(C)(C)CO)cc(Br)c1OCc1ccc(Cl)cc1.Cl,-45.7
20,O=C(CCc1nc2ccccc2c(=O)[nH]1)OCC(=O)N1CCN(S(=O)(=O)c2ccccc2)CC1,0.376
21,COc1ccc(CCNC(=O)c2cc(COc3c(F)cccc3F)on2)c(OC)c1,1.77
22,CC1=NN(c2cccc(F)c2)C(=O)/C1=C/c1ccc(N(C)C)cc1,6.38

row,Structure (SMILES),"hERG current change (%, negative = inhibition) at 10uM [%]"
1,COc1ccc(-c2cc(-c3ccc(C)cc3)n[nH]2)c(O)c1,20.2
2,O=C(Nc1ccccc1)C1=C[C@@H](c2ccc(Br)cc2)C[C@@H](OCCCCO)O1,1.99
3,COc1cc(-c2nnn(CC#N)n2)ccc1OCc1ccccc1,-5.98
4,CCOC(=O)CC(=O)CSc1nc(CC)c(C)cc1C#N,16.4
5,CN1CCN(C(=O)Nc2cccc3ccccc23)CC1,12.7
6,CC(=O)O[C@H]1C(=O)[C@@]2(C)C([C@H](OC(=O)c3ccccc3)[C@]3(O)C[C@H](O)C(C)=C1C3(C)C)[C@]1(OC(C)=O)CO[C@@H]1C[C@H]2O (some centres unmarked),1.75
7,Cn1c(=O)oc2cc(S(=O)(=O)NCc3ccco3)ccc21,-5.61
8,Cc1occc1C(=O)N/N=C/c1ccc(N(C)C)cc1,5.49
9,O=c1oc2ccccc2n1CSc1nc2ccccc2s1,-24.6
10,Cc1ccc2c(c1)nnn2C1CCN(C(=O)c2ccccc2F)CC1,-18.1
11,CC1c2cccn2CCN1S(=O)(=O)c1ccc(F)cc1 (centres unmarked),-52.3
12,Cc1ccccc1-c1noc(-c2ccc(Cl)cc2)n1,25.1
13,Cc1c(Cl)cccc1-n1ccnc1SCC(=O)O,18.2
14,O=C(CN1CCC(n2nnc3cc(F)ccc32)CC1)NC1CC1,-4.99
15,COc1ccc(C)cc1-n1c(SCC(=O)NCC2CCCO2)nc2c([nH]c3ccccc32)c1=O (centres unmarked),-15.3
16,COc1ccc(/C=N/N=C/c2ccc(OC)cc2)cc1,14
17,CCC(C)N(C)Cc1cccc(C2(O)CCN(S(=O)(=O)c3ccc(F)c(C)c3)CC2)c1 (centres unmarked),-72.4
18,CSCCC(NC(=O)c1ccco1)C(=O)NCCc1ccc(F)cc1 (centres unmarked),-16.9
19,Cc1[nH]c2ccccc2c1/C=N/NC(=O)CNC(=O)c1ccc2c(c1)OCCO2,13.6
20,CCOC(=O)c1ccccc1N/C=C/C(=O)c1ccccc1,1.02
21,COc1cccc(NC(=O)Cc2ccccc2)c1,-3.98
22,S=C(NCC1CCCO1)N1CCc2ccccc2C1 (centres unmarked),13.3

row,Structure (SMILES),"hERG current change (%, negative = inhibition) at 10uM [%]"
1,Cc1nc2c(-c3ccccc3)c(C)nn2c(C)c1CCC(=O)N1CCOCC1,-33.9
2,CCOC(=O)C1CCCN(CC(=O)NC2CC2)C1.O=C(O)C(=O)O (centres unmarked),-1.4
3,Cc1sc(NC(=O)CS(=O)(=O)c2ccccc2)c(C#N)c1C,12
4,COCCN(CC(=O)Nc1cccc(C)c1C)C(=O)c1cc(-c2ccncc2)nc2ccccc12,-57.3
5,COc1ccccc1CNS(=O)(=O)c1cccc2nsnc12,10.3
6,CC(=O)Nc1ccc(S(=O)(=O)NC2(C(F)(F)F)NC(=O)N(c3ccccc3F)C2=O)cc1 (centres unmarked),28.3
7,COC(=O)c1cccc(C23CC4(C2)[C@H](CN(Cc2cccnc2)[C@@H]4c2ccccc2)C3c2ccc(C(F)(F)F)cc2)c1 (some centres unmarked),-0.693
8,C[C@H]1CC[C@@H]2N(C1)C[C@H]1[C@@H]3C[C@H]4[C@@H](CC(=O)[C@H]5C[C@@H](O)CC[C@@]54C)[C@@H]3CC[C@H]1[C@]2(C)O.Cl,14.9
9,Cc1cccnc1NC(=O)CNC(=O)COc1ccccc1,6.69
10,Cc1c(N2C(=O)c3ccccc3C2(O)c2ccccc2)c(=O)n(-c2ccccc2)n1C (centres unmarked),6.85
11,CSCc1c(C(=O)NCCc2ccccn2)oc2ccccc12,-15.5
12,CC(C(=O)NC1CCCCC1)N1C(=O)c2cccc3cccc1c23 (centres unmarked),-5.64
13,Cc1ccccc1NS(=O)(=O)c1nnc(NC(=O)CC(C)C)s1,14.4
14,O=C(OCC(=O)c1cccc2ccccc12)c1ccc(CO)cc1,-13.5
15,COc1cc(C2C(C#N)=C(N)Oc3n[nH]c(-c4cccs4)c32)cc(OC)c1O (centres unmarked),16.2
16,CC(C)CN(C(=O)CSc1ncnc2sccc12)C1CCS(=O)(=O)C1 (centres unmarked),0.687
17,CCN(CC(=O)NCc1cccs1)C(=O)c1cccc(S(=O)(=O)N2CCc3ccccc32)c1,-71.3
18,Cc1ccc(CN2CCN(/N=C/c3cccnc3)CC2)c(C)c1,-47.5
19,COc1cc(C=O)c(-c2c(C=O)cc(OC)c3c2OCO3)c2c1OCO2,-5.96
20,Cc1cc(=O)[nH]c(SCc2csc(-c3ccccc3)n2)n1,-10.8
